In PubChem BioAssay (NCI):
Several values for one entry are separate records, joined by “and”; a condition that tells them apart may be missing. Identical values can stand only once.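 How tested: cells in 96-well plates exposed to compound for 48 hours at five concentrations. Abbreviation: GI50, concentration required for 50% inhibition of growth. TGI is the concentration that stops growth completely.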

test system: NCI-H322M lung; assay: NCI anticancer screen, dose series, 48 h

Compound	TGI	GI50
C=C(C)[C@@H](O)[C@H](O)C[C@H](C)C1CC[C@]2(C)C1=CC[C@@H]1[C@@]3(C)CC[C@@H](OC(C)=O)C(C)(C)[C@@H]3C[C@@H](OC3OC(COC(C)=O)C(O)C(O)C3O)[C@]12C (some centres undefined)	5.22 µM	–
O=C(Cc1ccccc1[N+](=O)[O-])C(CO)c1ccccc1[N+](=O)[O-] (centres undefined)	> 100 µM	–
CCOP(=O)(CCCC(O)CNc1nc(N)nc(Cl)c1N=Nc1ccc(Cl)cc1)OCC (centres undefined)	28.5 µM	–
COc1cc2c(c(O)c1Cl)C(=O)c1c(O)cc(C[C@H](C)O)cc1[C@H]2[C@H]1c2cc(C[C@H](C)O)cc(O)c2C(=O)c2c1cc(OC)c(Cl)c2O	75 µM and > 100 µM	–
COc1cccc2c1C(=O)c1c(O)c3c(c(O)c1C2=O)C[C@@](O)(C(C)=O)CC3S(=O)(=O)O (some centres undefined)	> 100 µM	–
CCCCCCCCCCNCCSSCc1ccc(Cl)cc1	9.8 µM	–
CC(C)=CC1C(C(=O)Oc2ccccc2C(C)C)C1(C)C (centres undefined)	> 100 µM	–
CC(=O)OCC1OC(N2C(=O)NC(=O)C3C=C4CCCCC4=CC32)CC1OC(C)=O (centres undefined)	> 100 µM	–
O=c1cc(-c2ccccc2)[nH]c2ncccc12	> 100 µM	–
O=C(/C=C/C12c3ccccc3C(c3ccccc31)C1C(=O)N(c3ccc(Cl)cc3)C(=O)C12)c1ccccn1 (centres undefined)	> 35.8 µM	0.512 µM
CNC(=O)c1nn(C)c2c1C(C)(C)Cc1cnc(Nc3cccc(N4CCN(C)CC4)c3)nc1-2	30 µM	0.451 µM
CCOC(=O)c1[nH]cc(C)c1-c1cccn1-c1ccc(Cl)cc1[N+](=O)[O-]	> 100 µM	–
COC(=O)[C@H](CC(C)C)NC(=O)[C@H](Cc1ccccc1)N1CC2C=CC1C2 (some centres undefined)	> 100 µM	–
O=[N+]([O-])c1ccc(/C=C/c2nc3ccc(Cl)cc3[nH]2)cc1	> 100 µM	33.7 µM
O=C(O)CN(c1ccccc1)S(=O)(=O)c1cccc([N+](=O)[O-])c1	> 100 µM	–
Cc1cc2c(c(C(=O)NCC(=O)N[C@@H](C)C(=O)OCc3ccccc3)c1)Oc1c(cc(C)cc1C(=O)NCC(=O)N[C@@H](C)C(=O)OCc1ccccc1)S2	> 100 µM	–
O=C([O][Hg][c]1ccccc1)c1ccccc1	20.3 µM	6.97 µM
Cc1cc(=O)[nH]c(CNC(=O)c2ccc3ccccc3c2)n1	> 100 µM	–
CC1(C)OC[C@H](C(=N)OCc2ccccc2)O1	> 100 µM	–
CCOC(=O)/C=C(/C(=O)OCC)n1cc(C)c(=O)n(Cc2cnnn2COCCOC(C)=O)c1=O	> 100 µM	–
CSc1ncc2c(n1)-c1ccccc1OC2N1CCOCC1 (centres undefined)	> 100 µM	–
Nc1nc(N)c(CCCCc2ccccc2)c(C=O)n1	32.9 µM	–
CNS(=O)(=O)OCC1OC(n2cnc3cncnc32)C(O)C1O (centres undefined)	> 100 µM	> 100 µM
[O-]/N=[N+](/[O-])C1CCCCC1=[N+]1CCOCC1 (centres undefined)	> 100 µM	–

Compound	TGI	GI50
O=C(c1ccccc1)C(Cl)C(Cl)c1ccccc1 (centres undefined)	27.5 µM	13.4 µM
N#CC(C#N)=NNc1ccc2cn[nH]c2c1	> 100 µM	–
Cc1ccc([P+](Cc2ccccc2)(c2ccccc2)c2ccccc2)cc1	54.7 µM	4 µM
Cc1ccc(C)c2c1C(=O)N(c1ccc(F)cc1F)C2=O	> 100 µM	28.7 µM
CSc1cc(Cl)c(C)cc1S(=O)(=O)NC(=O)NNc1ccc(F)cc1	> 100 µM	–
N#Cc1c(NCc2ccccc2)nc(NCc2ccccc2)c(C#N)c1-c1ccc(Cl)cc1	> 100 µM	> 100 µM
COc1ccc(-c2cc(/C=C3\C(=O)Nc4cc(Cl)ccc43)[nH]n2)cc1	> 100 µM	8.39 µM
COC(=O)c1cc(NC(=O)c2cc(NC(=O)c3cc([N+](=O)[O-])n(C)c3)cn2C)cn1C	7.94 µM	2.13 µM
COc1cc(C2S/C(=C/c3ccccc3)C(=O)N2Cc2ccccc2)cc(OC)c1OC (centres undefined)	> 100 µM	–
N#Cc1c(N)oc(-c2ccc([N+](=O)[O-])cc2)c1C#N	80 µM	–
N[C@H]1c2c(Br)sc(Br)c2C(=O)[C@H]1O	38 µM	–
CN(C)CN1CSC(=S)N(CN(C)C)C1	> 100 µM	–
CC(c1cc(Cl)ccc1O)c1cc(Cl)ccc1O	26.9 µM	12 µM
CC(=O)c1ccccc1NC(=O)C(=O)C(C(=O)c1ccc2ccccc2c1)C1OC(=O)c2ccccc21 (centres undefined)	67.9 µM	–
CCc1cc(C)cc2[n+]1CC=C2	> 100 µM	–
Cn1c2ccc(F)cc2c2ccc3c(c21)C(=O)C=CC3=O	> 88.8 µM	–
CCn1c(-c2nonc2N)nc2c(C#CC(C)(C)O)ncc(OC3CCNCC3)c21	> 25 µM	> 22.9 µM
O=C(CN1CCN(Cc2ccccc2Cl)CC1)NC1CC(=O)c2c(Br)sc(Br)c21 (centres undefined)	35.3 µM	19.8 µM
O=C1Nc2ccccc2/C1=C\c1c(-c2ccccc2)nc2sccn12	16.8 µM	4.97 µM
CCC(=O)Nc1cccc(N=Cc2ccc(OC(=O)/C=C\c3ccccc3)cc2)c1	> 75 µM	–
COC(=O)c1ccc2nc(-c3cc4ccccc4n3C)n(CCCCOc3cc4c(cc3OC)C(=O)N3CCC[C@H]3C=N4)c2c1	7.98 µM	1.9 µM
CN(C)CCNC(=O)c1cccc2ccc(-c3ccc(Br)cc3)nc12	12.1 µM	–
Nc1nc(NCCOCP(=O)(O)O)c([N+](=O)[O-])c(=O)[nH]1	> 100 µM	–
CCOC(=O)c1nc2ccc(OC)cc2c2c1Cc1ccccc1-2	> 100 µM	–
